# Assay results published in PubChem BioAssay AID504706 (National Center for Advancing Translational Sciences (NCATS), 2011).
# The whole screen tested about 320,000 compounds, of which about 200 (0.062%) were called active. The shares of active, inactive and inconclusive entries below differ from those in the screen. Calls follow the shape of the dose curve; as a rule, active = well fitted activation curve with a large enough effect; inconclusive = small, poorly fitted or top-dose-only effect; inactive = no such curve, though single readings can be large or run the other way. No potency is given beside an inconclusive call; the fits are too rough.
# Assay: qHTS assay for re-activators of p53 using a Luc reporter; also: nearly all actives have a fitted effect of over 45% in size; as to activity change, positive = activation: % of control where 0% means no effect
# Settings: H1299 p53-A138V BP100-luciferase reporter, luminescence, 24 h; series mostly up to 92.2 µM; activity change, positive = activation: at the top concentration
# Method in brief: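 p53-null H1299 cells stably carrying temperature-sensitive p53-A138V and a BP100-luciferase reporter were pinned with compounds (4-point, 1:5 series) and held 24 hrs at 37 deg C. Luminescence was read 10 min after detection reagent.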
# Potency is read from the fitted curve at half-maximal effect; tags tell the direction and shape of the fitted curve.
Structure (SMILES),Potency,"activity change, positive = activation"
O=C(CCNC(=O)c1ccccc1Cl)Nc1nc(-c2ccccc2Cl)cs1,"inconclusive [activator, single point]",
CC1=CC(C)(C)NC(=S)N1c1cc(C)cc(C)c1,,inactive: -2.97%
CN(NC1CC(=O)N(c2ccccc2)C1=O)c1ccccc1 (stereo unspecified),"inconclusive [activator, partial curve, poor fit]",
C=C(C)CNC(=S)Nc1nc2c(cc1C(=O)OCC)CCCC2,"inconclusive [activator, full curve, poor fit]",
CC1CCN(C(=O)c2cc3ccccc3c(=O)o2)CC1,"inconclusive [activator, partial curve, poor fit]",
Cc1cc(S(=O)(=O)Nc2ccc(C(=O)NCC(c3ccccc3)N(C)C)cc2)ccc1F (stereo unspecified),"inconclusive [activator, single point]",
CCOC(=O)/C=C(\C)Sc1cc(O)c2ccccc2c1O,,inactive: -15.4%
O=C(CN1CCCC1)Nc1ccc(NC(=O)Nc2ccccc2Cl)cc1,"inconclusive [activator, partial curve, poor fit]",
Clc1ccc(/C=N/Nc2nnc(Cl)c3ccccc23)cc1,"inconclusive [activator, partial curve, poor fit]",
O=C(/C=C/c1c[nH]c2ccccc12)c1ccccc1,"inconclusive [activator, partial curve, poor fit]",
O=C(Nc1cnc2sccn2c1=O)c1ccc(Cl)cc1Cl,"inconclusive [activator, partial curve, poor fit]",
CN(C)CCCC1(O)c2ccccc2CCc2ccccc21,,inactive: -4.12%
CCc1nccn1CCC(=O)N1CCCC(N2CCN(c3ccccc3F)CC2)C1 (stereo unspecified),"inconclusive [activator, single point]",
COc1ccc(-c2nn(CCC#N)cc2C(=O)Nc2ccccn2)cc1OC,"inconclusive [activator, partial curve, poor fit]",
S=C(NCCCc1ccccc1)NC1CCCCC1,"inconclusive [activator, partial curve, poor fit]",
CC(=O)c1c(C)[nH]c(C(=O)NCc2ccco2)c1C,"inconclusive [activator, single point]",
COc1cccc(-n2cnc3cccc(N)c32)c1,"inconclusive [activator, single point]",
O=C1CCC(C(=O)N2CCCCO2)CN1Cc1cccc(C(F)(F)F)c1 (stereo unspecified),"inconclusive [activator, single point]",
O=C(CSc1nc(C2CC2)nc2sc3c(c12)CCCC3)NCc1ccco1,"inconclusive [activator, partial curve, poor fit]",
O=C(Cn1ncc2c([nH]c3ccccc32)c1=O)N1CCOCC1,,inactive: -4.48%
Cc1ccc(/C(N)=N/OC(=O)Cc2cccs2)cc1,"inconclusive [activator, single point]",
Cc1ncc(CO)c(/C=N/N=C/c2ccccc2O)c1O,"inconclusive [activator, full curve, poor fit]",

Structure (SMILES),Potency,"activity change, positive = activation"
CSc1cccc(NC(=S)N2CCC(c3ccccc3)C2)c1 (stereo unspecified),,inactive: 22%
COc1cccc(CN2CCN(Cc3cccn3-c3cccnc3)CC2CCO)c1 (stereo unspecified),,inactive: -2.33%
OC(COc1ccc(Cl)cc1)CN1CCCCC1 (stereo unspecified),"inconclusive [activator, single point]",
S=c1[nH]nc(-c2cccnc2)n1-c1ccccc1,,inactive: 4.64%
CC1CCN(S(=O)(=O)c2ccc(NC(=O)CN3CCN(C)CC3)cc2)CC1,,inactive: 1.84%
Cc1ccc2c(c1)COc1c3ccc(C(=O)NC(C)C)cc3nn1-2,"inconclusive [activator, full curve, poor fit]",
CCN(CC)Cc1c(O)ccc2c(=O)c(-c3ccccc3OC)coc12,"inconclusive [activator, single point]",
COc1ccccc1N1CCN(C2CCCN(Cc3ccc(Cl)cc3)C2)CC1 (stereo unspecified),"inconclusive [activator, partial curve, poor fit]",
O=C(Nc1ccc(Cc2ccncc2)cc1)c1ccco1,"inconclusive [activator, single point]",
Cc1nnc(SCc2ccc(F)cc2Cl)s1,"inconclusive [activator, partial curve, poor fit]",
Cc1nnc(SCC2=C(C(=O)O)N3C(=O)C(NC(=O)COc4ccc(F)cc4)C3SC2)s1 (stereo unspecified),"inconclusive [activator, full curve]",
CC(C)NC(=O)c1ccc(Sc2ccccc2)c([N+](=O)[O-])c1,"inconclusive [activator, single point]",
Cc1ccc(CNC(=O)CCCCCNc2nc(=S)[nH]c3ccccc23)cc1,,inactive: -2.93%
COCCCN=Cc1c(C)[nH]n(-c2ccc(Br)c(C)c2)c1=O,"inconclusive [activator, full curve, poor fit]",
Cc1cc(C(=O)N/N=C/c2ccc(-c3ccccc3Cl)o2)n[nH]1,"inconclusive [activator, partial curve, poor fit]",
N#C/C(=C(/O)COC(=O)CCc1ccc(S(=O)(=O)N2CCOCC2)cc1)c1nc2ccccc2[nH]1,"inconclusive [activator, single point]",
Cc1ccc(-c2nn(-c3ccccc3)cc2CO)cc1,"inconclusive [activator, partial curve, poor fit]",
CCOC(=O)c1nn(-c2ccc(Br)cc2)cc1C(=O)c1cccc2ccccc12,,inactive: 13.6%
O=C(NCc1nnc(SCC(=O)N2CCCCCC2)o1)c1ccccc1F,,inactive: -8.7%
O=[N+]([O-])c1ccc(O)c(/C=N/n2c(CO)nc3ccccc32)c1,,inactive: 1.38%
COc1ccc(OC)c2sc(N3CCCCC3)nc12,"inconclusive [activator, full curve, poor fit]",
CC(C)C(=O)Nc1ccc(-c2nnc(-c3ccccc3)o2)cc1,"inconclusive [activator, full curve, poor fit]",

Structure (SMILES),Potency,"activity change, positive = activation"
Cc1cccc(CSc2cccc3cccnc23)c1,"inconclusive [activator, single point]",
CCOc1ccc(NC(=NCc2ccc3c(c2)OCO3)SC2CC(=O)N(c3ccc(OCC)cc3)C2=O)cc1 (stereo unspecified),"inconclusive [activator, partial curve]",
CCCCCn1nc(C)c(/C=N/NC(=O)c2ccoc2C)c1C,"inconclusive [activator, partial curve, poor fit]",
COc1cc2sc3cc(NCC[C@@H]4CCCN4C)ccc3c(=O)c2cc1OC,"inconclusive [activator, partial curve, poor fit]",
Cc1nc2cc(NC(=O)Nc3nccs3)ccc2n1C,"inconclusive [activator, partial curve, poor fit]",
CCC(=O)Nc1cccc(-c2nc3ccc(C)cc3o2)c1,"inconclusive [activator, partial curve, poor fit]",
CN(C)c1ccc(N=Nc2ccc(S(N)(=O)=O)cc2)cc1,"inconclusive [activator, partial curve, poor fit]",
CCCCOc1ncnc2c1[nH]c1ccccc12,"inconclusive [activator, partial curve, poor fit]",
CN1CC(=O)N(CC(=O)Nc2ccc(N3CCOCC3)cc2)C1=O,"inconclusive [activator, partial curve, poor fit]",
CCOc1ccc2nc(SCC(=O)NC(=O)NCc3ccco3)sc2c1,"inconclusive [activator, single point]",
N#C/C(=N\Nc1cccc(C(F)(F)F)c1)C(=O)c1ccsc1,"inconclusive [activator, partial curve, poor fit]",
CCOc1ccc(NC(=S)NC(=O)/C=C/c2ccc(Br)cc2)c([N+](=O)[O-])c1,,inactive: 9.77%
C/C(N)=C(/C#N)C(=O)CSc1nnc(Nc2ccccc2C)s1,"inconclusive [activator, partial curve, poor fit]",
COc1ccc(CC(=O)Nc2ccc(NC(=O)c3ccc(Br)cc3)cc2)cc1OC,"inconclusive [activator, single point]",
O=C(Nc1csc([N+](=O)[O-])c1)Nc1ccccc1Cl,"inconclusive [activator, partial curve, poor fit]",
COc1ccc(NC(=O)O/N=C/c2ccc(N(C)C)cc2)cc1,"inconclusive [activator, full curve, poor fit]",
Cc1cccc(C(=O)N2CCCC(c3nc(-c4ccc(C)o4)no3)C2)c1 (stereo unspecified),"inconclusive [activator, partial curve, poor fit]",
CCCc1nn(C)c(C(=O)Nc2cccc(Cl)c2)c1Cl,"inconclusive [activator, partial curve, poor fit]",
O=C(Nc1ccccn1)NC(C(F)(F)F)C(F)(F)F,"inconclusive [activator, single point]",
COc1ccc(C(=O)COC(=O)CN2CC(=O)Oc3ccccc32)cc1Br,"inconclusive [activator, single point]",
CN(C(=S)NC(=O)Cc1ccccc1)c1ccccc1,,inactive: 2.51%
Cn1ccnc1SCC(=O)Nc1nc2c(F)c(F)c(F)cc2s1,,inactive: 0.703%
